{"source": "PubChem BioAssay AID463173", "about": "(ICCB-Longwood Screening Facility, Harvard Medical School, 2010)", "note": "In all, about 52,000 compounds went through this assay and about 4,300 (8.3%) were called active. Cut-off read from the data, not from the text of the source: active = survival mostly below about 52% (no sharp cut-off); inactive = mostly above about 56%. The list shows a part of the results.", "data": [{"tested_on": "DeltatarO mutant", "assay": "growth inhibition of S. aureus wild type versus tarO mutant, primary screen, teichoic acid synthesis inhibitors, RN4220, OD600 (AID 463173)", "settings": "OD600, 18 h, stronger effect = lower value, screened at 18.75 µg/mL (by protocol)", "values": [{"smiles": "CC(C)c1ccc(OCC(=O)NCC(c2ccc(Cl)cc2)N2CCOCC2)cc1", "note": "(centres undefined)", "survival": "inactive: 67%"}, {"smiles": "CC(C)NC(=O)C1CCN(C(=O)c2cnn(-c3ccccc3)c2-n2cccc2)CC1", "survival": "inactive: 86%"}, {"smiles": "Cc1nc2c(C(=O)NCCc3ccc(Cl)cc3)cnn2c(C)c1Cc1ccc(F)cc1", "survival": "inactive: 69%"}, {"smiles": "COc1cc(-c2nc(C(N)=O)c3c(n2)n(-c2cccc(C)c2)c(=O)n3C)cc(OC)c1OC", "survival": "inactive: 84%"}, {"smiles": "CCn1c(CN2CCCCC2)nc2cc(NC(=O)c3cccc([N+](=O)[O-])c3)ccc21", "survival": "inactive: 91%"}, {"smiles": "Cc1c(C(=O)Nc2cccc(-c3nc4ccccc4s3)c2)oc2ccc(F)cc12", "survival": "inactive: 51%"}, {"smiles": "Cc1ccc(CNC(=O)c2nn(C)c3c2CSc2ccc(C)cc2-3)cc1", "survival": "inactive: 75%"}, {"smiles": "COC(=O)c1ccccc1NC(=O)c1ccc(=O)n(Cc2cccc(C)c2)c1", "survival": "inactive: 74%"}, {"smiles": "Cc1ccc(CCNC(=O)CSCc2nc(-c3ccc(C)cc3)oc2C)cc1", "survival": "active: 26%"}, {"smiles": "N#Cc1cccc(NC(=O)C2CCN(c3nc(-c4ccc(Cl)cc4)no3)CC2)c1", "survival": "inactive: 82%"}, {"smiles": "CCOc1ccc(-c2nnc(SCC(=O)Nc3cc(C)ccc3OC)o2)cc1", "survival": "inactive: 57%"}, {"smiles": "CC(C)c1ccc(NC(=O)Cn2c3ncccc3c(=O)n2-c2ccccc2)cc1", "survival": "inactive: 80%"}, {"smiles": "CSc1nnc2n(-c3cccc(C)c3)c(=O)c3c4c(sc3n12)CCCC4", "survival": "inactive: 66%"}, {"smiles": "CCOC(=O)C1C(=O)C=C(c2ccc(NS(C)(=O)=O)cc2)CC1c1ccco1", "note": "(centres undefined)", "survival": "inactive: 89%"}, {"smiles": "COc1ccc(S(=O)(=O)c2c(O)c(C)cc(NC(=O)c3ccccc3)c2C(C)C)cc1", "survival": "inactive: 80%"}, {"smiles": "COc1ccccc1N1CCN(C(=O)c2ccc(Nc3nc4ccccc4n4nnnc34)cc2)CC1", "survival": "inactive: 59%"}, {"smiles": "CCn1c(=O)n(CC)c2cc(N3CCCC3)c(NC(=O)Nc3cc(C)cc(C)c3)cc21", "survival": "inactive: 91%"}, {"smiles": "Cc1cccn2c(=O)cc(COc3cccc(NC(=O)c4cccc(Cl)c4)c3)nc12", "survival": "inactive: 124%"}, {"smiles": "O=C(Nc1ccccc1F)c1oc2ccccc2c1NC(=O)c1c(F)cccc1F", "survival": "active: 26%"}, {"smiles": "Cc1cccc(-c2nnc(SCC(=O)N3CCCCC3)o2)c1", "survival": "inactive: 109%"}, {"smiles": "Cc1ccc(CSC2=Nc3ccccc3C3=NC(CC(=O)NCc4ccc5c(c4)OCO5)C(=O)N23)cc1", "note": "(centres undefined)", "survival": "inactive: 78%"}, {"smiles": "COc1cc(OC)c(NC(=O)c2ccc3c(c2)N(Cc2ccc(C)cc2)CCS3)cc1Cl", "survival": "inactive: 91%"}, {"smiles": "Cc1cccc(C2N=C(N)Nc3nc4ccccc4n32)c1", "note": "(centres undefined)", "survival": "inactive: 133%"}, {"smiles": "COc1cc2[nH]c(=O)c(C(=O)NCCN3CCCC3)c(O)c2cc1OC", "survival": "inactive: 85%"}]}]}
